Measured values: the supplement of paper PMC4967469
By IC50 is meant the dose at which the fit gives 50% viability; where the fit passes the top or lowest dose, that dose stands as a limit. AUC is the area under the same curve over the 256-fold range up to the top dose, as a fraction; it is 1 without any effect and falls as sensitivity rises. For some of these results: Any top dose called inferred is not printed in the source and was worked back from the curve model. For some of these results: Where an entry number is given, a second screen of the drug exists; the two often differ.

Key:
Assay in all cases: Viability of human cancer cell lines after 72 h of drug (GDSC screen)
LFM-A13 = compound: C/C(O)=C(\C#N)C(=O)Nc1cc(Br)ccc1Br [LFM-A13]; settings: top dose 16 µM; top dose inferred
Procedure: (§1)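 Human cancer cell lines in 384-well plates, medium with 10% serum, drug for 72 h over a 256-fold dose range (nine 2-fold or five 4-fold steps up to the top dose). Adherent lines were fixed and stained with the nucleic acid dye Syto60, suspension lines read with resazurin; signal relative to control wells, capped at 0 and 100%. One two-parameter sigmoid per drug and line, fitted in a mixed model over all curves with the slope shared within a line.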

TW-37 = compound: CC(C)c1ccccc1Cc1cc(C(=O)Nc2ccc(S(=O)(=O)c3ccccc3C(C)(C)C)cc2)c(O)c(O)c1O [TW-37]; settings: top dose 5 µM
Procedure: as §1

Bicalutamide = compound: CC(O)(CS(=O)(=O)c1ccc(F)cc1)C(=O)Nc1ccc(C#N)c(C(F)(F)F)c1 [Bicalutamide]; settings: top dose inferred
Procedure: as §1

AUY922 = compound: CCNC(=O)c1noc(-c2cc(C(C)C)c(O)cc2O)c1-c1ccc(CN2CCOCC2)cc1 [AUY922]; settings: top dose 0.256 µM; top dose inferred
Procedure: as §1

KIN001-270 = compound: Cc1ccc(Nc2cc(-c3cccc(N4C(=O)c5ccccc5C4=O)c3)ncn2)cc1NS(C)(=O)=O [KIN001-270]; settings: top dose 20 µM; top dose inferred
Procedure: as §1

Nilotinib = compound: Cc1cn(-c2cc(NC(=O)c3ccc(C)c(Nc4nccc(-c5cccnc5)n4)c3)cc(C(F)(F)F)c2)cn1 [Nilotinib]; settings: top dose 2 µM
Procedure: as §1

GNF-2 = compound: NC(=O)c1cccc(-c2cc(Nc3ccc(OC(F)(F)F)cc3)ncn2)c1 [GNF-2]; settings: top dose 1.28 µM; top dose inferred
Procedure: as §1

Gemcitabine = compound: Nc1ccn([C@@H]2O[C@H](CO)[C@@H](O)C2(F)F)c(=O)n1 [Gemcitabine]; settings: top dose 1.024 µM
Procedure: as §1

T0901317 = compound: O=S(=O)(c1ccccc1)N(CC(F)(F)F)c1ccc(C(O)(C(F)(F)F)C(F)(F)F)cc1 [T0901317]; settings: top dose 10.24 µM; top dose inferred
Procedure: as §1

MP470 = compound: S=C(NCc1ccc2c(c1)OCO2)N1CCN(c2ncnc3c2oc2ccccc23)CC1 [MP470]; settings: top dose 20 µM; top dose inferred
Procedure: as §1

[1] = top dose 1.024 µM, screen: GDSC drug entry 150
[2] = top dose 10 µM, screen: GDSC drug entry 1502

Row | Cell Line | AUC (LFM-A13) | IC50 (LFM-A13) [nM] | AUC (TW-37) | IC50 (TW-37) [nM] | AUC (Bicalutamide; [1]) | IC50 (Bicalutamide; [1]) [nM] | AUC (Bicalutamide; [2]) | IC50 (Bicalutamide; [2]) [nM] | AUC (AUY922) | IC50 (AUY922) [nM] | AUC (KIN001-270) | IC50 (KIN001-270) [nM] | AUC (Nilotinib) | IC50 (Nilotinib) [nM] | AUC (GNF-2) | IC50 (GNF-2) [nM] | AUC (Gemcitabine) | IC50 (Gemcitabine) [nM] | AUC (T0901317) | IC50 (T0901317) [nM] | AUC (MP470) | IC50 (MP470) [nM]
1 | ST486 (Burkitt lymphoma, suspension) | 0.977 | > 16000 | 0.533 | 379 | 0.981 | > 1020 | 0.989 | > 10000 | 0.546 | 21 | 0.818 | 9670 | 0.903 | > 2000 | 0.985 | > 1280 | 0.278 | 16.4 | 0.915 | > 10200 | 0.929 | > 20000
2 | SU-DHL-4 (B-cell lymphoma, suspension) | 0.994 | > 16000 | 0.434 | 217 | 0.997 | > 1020 | 0.997 | > 10000 | 0.56 | 22.4 | 0.946 | 18800 | 0.997 | > 2000 | 0.996 | > 1280 | 0.964 | > 1020 | 0.996 | > 10200 | 0.85 | 9110
3 | SU-DHL-6 (B-cell lymphoma, suspension) | 0.984 | > 16000 | 0.373 | 153 | 0.989 | > 1020 | 0.995 | > 10000 | 0.567 | 23.2 | 0.912 | 15400 | 0.982 | > 2000 | 0.995 | > 1280 | 0.344 | 26.7 | 0.958 | > 10200 | 0.9 | 13800
4 | SU-DHL-16 (B-cell lymphoma, suspension) | 0.993 | > 16000 | 0.452 | 239 | 0.996 | > 1020 | 0.995 | > 10000 | 0.549 | 21 | 0.848 | 9160 | 0.996 | > 2000 | 0.996 | > 1280 | 0.212 | 12.6 | 0.899 | 6680 | 0.186 | 211
5 | SUP-B15 (lymphoblastic leukaemia, suspension) | 0.963 | > 16000 | 0.532 | 381 | 0.984 | > 1020 | – | – | 0.516 | 17.6 | 0.951 | > 20000 | 0.282 | 31.2 | 0.798 | 579 | 0.123 | 4.28 | 0.894 | > 10200 | 0.714 | 4890
6 | SUP-HD1 (Hodgkin lymphoma, suspension) | 0.98 | > 16000 | 0.497 | 308 | 0.986 | > 1020 | 0.986 | > 10000 | 0.695 | 54.9 | 0.903 | > 20000 | 0.979 | > 2000 | 0.987 | > 1280 | 0.421 | 39.4 | 0.932 | > 10200 | 0.955 | > 20000
7 | SUP-M2 (anaplastic large cell lymphoma, suspension) | 0.993 | > 16000 | 0.43 | 211 | 0.994 | > 1020 | 0.993 | > 10000 | 0.832 | 113 | 0.991 | > 20000 | 0.994 | > 2000 | 0.994 | > 1280 | 0.455 | 49.6 | 0.815 | 4030 | 0.846 | 9740
8 | SUP-T1 (T-cell lymphoblastic leukaemia, suspension) | 0.973 | > 16000 | 0.743 | 1440 | 0.99 | > 1020 | 0.983 | > 10000 | 0.627 | 34.7 | 0.965 | > 20000 | 0.988 | > 2000 | 0.963 | > 1280 | 0.246 | 12.9 | 0.953 | > 10200 | 0.938 | > 20000
9 | SW684 (fibrosarcoma, adherent) | 0.897 | > 16000 | 0.674 | 1200 | 0.977 | > 1020 | 0.98 | > 10000 | 0.755 | 125 | 0.983 | > 20000 | 0.983 | > 2000 | 0.972 | > 1280 | 0.983 | > 1020 | 0.97 | > 10200 | 0.909 | > 20000
10 | SW954 (urogenital system, adherent) | 0.964 | > 16000 | 0.565 | 472 | 0.984 | > 1020 | 0.978 | > 10000 | 0.421 | 9.67 | 0.951 | > 20000 | 0.973 | > 2000 | 0.985 | > 1280 | 0.225 | 9.96 | 0.926 | > 10200 | 0.948 | > 20000
11 | SW962 (urogenital system, adherent) | 0.952 | > 16000 | 0.51 | 335 | 0.975 | > 1020 | 0.943 | > 10000 | 0.465 | 12.5 | 0.948 | > 20000 | 0.982 | > 2000 | 0.963 | > 1280 | 0.322 | 18 | 0.982 | > 10200 | 0.975 | > 20000
12 | SW982 (soft tissue, adherent) | 0.977 | > 16000 | 0.38 | 144 | 0.984 | > 1020 | 0.978 | > 10000 | 0.455 | 12 | 0.96 | > 20000 | 0.985 | > 2000 | 0.985 | > 1280 | 0.084 | < 4 | 0.984 | > 10200 | 0.983 | > 20000
